Results on 56 variants are retold here after the RNAGym collection of RNA variant scans (doi:10.7554/elife.90254).

B1: LINE1-mini (parent)
chain: GGCAGAGCUCAACACAGCGUGGCAAAGUGGCUGUGGCUAGACUGCC

Read counts are not given, so values of variants with three or more changes are uncertain.

The variants in this series derive from B1. The series can be described thus: self-cleavage, relative activity (ratio to wild type); higher = more cleavage; in vitro, sequencing; the parent is a self-cleaving ribozyme.
Take GUCAGAGCUCAACACCGCGUGGCAAGGUGGCUGUGGCUAGACUGCC [G2U A16C A26G]: the self-cleavage was determined as 0.11. In the case of GUCUGAGAUCAACUCAGCGUGGCAAAGUUUCUGUGGCUAGGCUUCC [G2U A4U C8A A14U G29U G30U A41G G44U] it was 0.19.

On to GUGAGUGCUCAACACAGCGUGGCAAAGUGGCUGUGGCUAGACUGCC [G2U C3G A6U], for which the self-cleavage turned out to be 0.14. GUUAGAGCUGAACAAAGCGUGGCAAAGUGGCUGUGGCUAGACUGCC [G2U C3U C10G C15A]: the self-cleavage worked out at 0.

Turning to GUUGGAGCCCAACAUAGCGUGGCAAAGCGGAUGUGGCUAGCCUGCC [G2U C3U A4G U9C C15U U28C C31A A41C], the self-cleavage turned out to be 0.01. On to GUCAGAGCUCAACACGGCGUGGCAAAGUGACUGUCGCUAGACUGCC [G2U A16G G30A G35C], for which the self-cleavage is 0.01. On to GUGAGAGAUCAAUACAGCGUGGCAAAGUGGCUGUGGCUUGACUGGC [G2U C3G C8A C13U A39U C45G], for which the self-cleavage turned out to be 0.25.

For the variant GUCAGCGCUCAACACAGCGUGGCAAAGUGGCUGUGGCUAGAGUGCC [G2U A6C C42G], the self-cleavage was found to be 0.01.

As for GUAAGAGCUCAACACAGCGUGUCAAUGUGGCUAUGACUAGACGGCC [G2U C3A G22U A26U G33A G36A U43G], the self-cleavage worked out at 0. In the case of GUCAGCUCUCAACUCAGCGUGGCAAAGUUGCUGUGGCUAGACUGCC [G2U A6C G7U A14U G29U] it was 0.05; in that of GUCAGAGCUCAACACAGCGUGGCAGAGUGGUUGUGGCUAGACUGCC [G2U A25G C31U], 0.01; in that of GUCUGAGCUGAACACAGCGUGGCAAAGUGAGUGUGGCCAGACUGCC [G2U A4U C10G G30A C31G U38C], 0.01. In the case of GUCAGAGCUCAACACAGCGUGGCAAGGUAGCUGUGGCUAGACUGCC [G2U A26G G29A] it was 0.08; in that of GUCAGGGCUCAACACAGCGUGGCAAAGUGGCUGUGGCUAUACUGGC [G2U A6G G40U C45G], 0.02.

Regarding GUCAGGGGUCAACAUAGCGUGGAAAAUUGGCUGUGGCUAGACUGCC [G2U A6G C8G C15U C23A G27U], the self-cleavage was determined as 0.08. In the case of GUUAGAGCUCCACACAGCGUGUCAAAGUGGCUGUGGCGAGACUGCA [G2U C3U A11C G22U U38G C46A], the self-cleavage was determined as 0.

Consider GUCAGGGCACAACACAUCGUGGCAAAGUUGCUGUGGCUAGACUGUC [G2U A6G U9A G17U G29U C45U], for which the self-cleavage stood at 0.03. As for GUCAGCGCUCAACACAGCAUGGCAAAUUGGCUGUGGCUAGACUUCC [G2U A6C G19A G27U G44U], the self-cleavage worked out at 0.06. In the case of GUCAGAGCUCAACACAGCGUGGCAAAGUGGCUGUGGCUGCACUGCC [G2U A39G G40C] it was 0.02; in that of GUGAGAGCUCAACACAGCGUGGCAAUGUGGCUGUCGCUAGAGUGCC [G2U C3G A26U G35C C42G], 0.03. As to GUCAGGGCUCAACACAGCGUGGCAAAGUGGCUGCGGCUAUACUGCC [G2U A6G U34C G40U], the self-cleavage was 0.04. As for GUCUGAGCUCAACACAGCGUGGCAAAGUGGCUGUGGCUAUACUGCC [G2U A4U G40U], the self-cleavage came out at 0.04.

For the variant GUCAGAGCUCAACACAGCGUGGCAUAUUGGGUGUGGCUAGACUCCA [G2U A25U G27U C31G G44C C46A], the self-cleavage stood at 0.05. In the case of GUCAGAGCUCAACUCAGCGUGGCAAAGUGACUGUGGCUAGACUGCC [G2U A14U G30A] it was 0.07; in that of GUCAGAGCUCAACACCGCGUGGCAAGGUGGCUGUGGCGAGACUGCC [G2U A16C A26G U38G], 0. In the case of GUCAGAGCUCAACACAGCGUGGCCAAGUGGCUGCGGCUAGGCUGCC [G2U A24C U34C A41G] it was 0.02; in that of GUCAGAGCUCAACGCAGCGUGGCAAAGUGGCUAUGGCUAGACUGCC [G2U A14G G33A], 0.01; in that of GUGAGAGCUCAACACAGCGUGGCUAAGUGGCUGCGGCUAGACUCCC [G2U C3G A24U U34C G44C], 0.06. As for GUCUGAGGUCAACACAGCGUGGCAAAGUGGGUGUGGCUAGACUGCC [G2U A4U C8G C31G], the figure is 0; as for GUCAGAGCUCAACACUUCGUGGCAAAGUGGCUGUGGCUAGACUGCC [G2U A16U G17U], 0.04. In the case of GUCAGAGCUCACCACAGCCUGGCAAAGUGGAUGUGGCUAGUCUGCC [G2U A12C G19C C31A A41U], the self-cleavage worked out at 0.01. In the case of GUCAGAGCUCAUCAGAGCGUGGCAAAGUCGCUGUGGCUAGACUGCU [G2U A12U C15G G29C C46U] it was 0.01; in that of GUUAGAGCUAAACACAGCGUGGCAAAAUGGCUGUGGCUAGACUGCC [G2U C3U C10A G27A], 0.05.

Turning to GUGAGAGCUCAACACAGCGUGGUAAAGUGGCUGAGGCUAGACUGCC [G2U C3G C23U U34A], the self-cleavage came out at 0.15. As for GUCAGAGCUCCACACAGUGUGGCAAAGUGGCUGUGGAUAGACUGCC [G2U A11C C18U C37A], the figure is 0.01; as for GUCAGAGCUCCACACAGCGUGGCAAAGUUGCCGUGGCUAGACUGCC [G2U A11C G29U U32C], 0.03. As for GUUAGAGCUGAACACAGCGUGGCAAAGUGGCUAUGGUUAGACUGCC [G2U C3U C10G G33A C37U], the figure is 0.02. In the case of GUCAGAGCUCGACCCAGCGUGGCAAAGUGGCUGUGUCUAGACUGCC [G2U A11G A14C G36U] it was 0; in that of GUCAGUGCUCAGCACAGCGAGGCAAAGUGGCUGUGGCUAGACUGCC [G2U A6U A12G U20A], 0.01.

Regarding GUAAGAGCUCAACACAUCGUGGCAAAGUGGCUGUGGUUAGACUGCC [G2U C3A G17U C37U], the self-cleavage came out at 0.08. As for GUCAGCGCUCAACACAGCGUGUCAAAGGGGCUGUGACUAGACUGCC [G2U A6C G22U U28G G36A], the figure is 0.02; as for GUCAGUGCUCAACACAGCGAUGCAAAGUGGCUCUGGAUAGACUGCC [G2U A6U U20A G21U G33C C37A], 0; as for GUCAGAGCUCAACUCGGCAUGGCAAAGUGGCUGUAGCUAGACUGCC [G2U A14U A16G G19A G35A], 0.01. With GUCAGAGCUCAACACAGCGUGGCGAAGUGACUGUGGCUAUACUGCC [G2U A24G G30A G40U], the self-cleavage amounted to 0.19. As for GUGAGAUCUCAACACAGCGUGGCAAAGUGGCUGUGGCUAGAUUGCC [G2U C3G G7U C42U], the figure is 0.08; as for GUGAGAGCUCAACUCAGCGUGGCAAAGUGGUUGUGGCUGGACUGCC [G2U C3G A14U C31U A39G], 0.05. In the case of GUCAGGGCCCAACACAGCGUGGCAAAGUGGCUGUGGCUAGACUGCC [G2U A6G U9C] it was 0.01.

As to GUCAGAGCUCAACUCAGCGUGGCAAAGUGGCUGUGGAUAGACUGAC [G2U A14U C37A C45A], the self-cleavage is 0.02.

Turning to GUAAGAGCUCAACACAGCGUUGCAAAGUGGCUGUGGCUAGAGCGCC [G2U C3A G21U C42G U43C], the self-cleavage came to 0.01.

As for GUCAGAGCUCUACACAGCGUGGCAAAGUGGCUGUGGCUACACUGCC [G2U A11U G40C], the self-cleavage was 0.01.

Turning to GUCAGAGCUCAACCCAUCGUGGCAAAGUGGCUGUGGCUAGACUGCC [G2U A14C G17U], the self-cleavage worked out at 0.02. In the case of GUCAGAGCUCAUCACAGCGUUGCAAAGUGGCUGUGGCUAGACUGCC [G2U A12U G21U] it was 0.04; in that of GUCAGAGCUCAACACCGCGUGGCAAAAGGGCUCUGGCUAGAUUACC [G2U A16C G27A U28G G33C C42U G44A], 0. On to GUCAGAGCUCAACACAGCGUGGCUAAGUGGCUGUGGCUAGACUGAC [G2U A24U C45A], for which the self-cleavage came out at 0.29. As for GUAAGAGCACAACACAGCUUUGCAAAGUGGCUGAGGCUAGACUGCC [G2U C3A U9A G19U G21U U34A], the figure is 0.69; as for GUAAGAGCUCAACACAGCGUGGCUACUUGGCUGUGGCUAGACUGCC [G2U C3A A24U A26C G27U], 0.59.
